# Reference: the RNAGym collection of RNA variant scans (doi:10.1093/nar/gkz1192)
# The source gives no read counts; variants with many changes may rest on few reads.
# B1: CPEB3 Ribozyme (parent)
# chain: UAACAGGGGGCCACAGCAGAAGCGUUCACGUCGCAGCCCCUGUCAGAUUCUGGUGAAUCUGCGAAUUCUGCUGUAUAUCUC
# Variants of: B1
# Experiment: self-cleavage, relative activity (ratio to wild type); higher = more cleavage; in vitro, sequencing
# How it was run: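 CPEB3 self-cleaving ribozyme mutant libraries were made by rounds of error-prone PCR, barcoded, and transcribed in vitro with T7 RNA polymerase for 5 hours at 37°C. Cleavage occurred during transcription and a 15 min DNase I step before EDTA stop. RNAs were reverse transcribed with template switching and Illumina-sequenced, with DNA sequencing mapping barcodes to variants. Relative activity is the variant's cleaved/total read fraction divided by wild type's (minimum 5 reads), averaged across three batches.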
row,Variant,self-cleavage
1,UAACAGGGGGCCACAGCAGUAGCGUUCACGUCGCAGCCCCUGUCAGAUUCUGGUGAAUCUACGAAUCCUGCUGUAUAUCUC [A20U G61A U67C],0.37
2,UAACAGGGGGCCACAGCAGUCGCGUUCACGUCGCAGCCCCUGUCAGAUUCUGGUGAAUCUGCGAAUUCUGCUGUAUAUUUC [A20U A21C C79U],0.29
3,UAACAGGGGGCCACAGCAGUAGCGUUCAAGUCGCAGCCCCUGUCGGAUUCUGGUGAAUCUGCGAAUUCUGCUGUAUAUCUC [A20U C29A A45G],0.12
4,UAACAGGGGGCCACAGCAGUAGCGUUCACGUCGCUGCCCCUGUCAGAUUCUUGUGAAUCUGCGAAUUCUGCUGUAUACCAC [A20U A35U G52U U78C U80A],0.02
5,UAACAGGGGGCCACAGCAGUUGCGUUCACGUCGCAGCGCCUGUCAGAUUCUGGUGAAUCCGCGGAUUCUGCUGUAUAUCUC [A20U A21U C38G U60C A64G],0.05
6,UAACAGGGGGCCACAGCAGUAGAGUUCACGUCGCAGCCCCUGUCAGAUUCUGGUGAAUCUGCGAAUUCUGCCGUAUAUCUC [A20U C23A U72C],0.28
7,UAACAGGGGGCCACAGCAGUAGCGUUCCCGUCGCAGCCCCUGUCAGAUUCUGGUGAAUCUGCGAAUUAUGCUGUAUAUCUC [A20U A28C C68A],0.1
8,UAACAGGGGGCCACAGCAGUAGCGUUCACGUCGCAGCCCCUGUCUGAUUCUGGUGAAUCUGCGAACUCUGCUGUAUAUCCC [A20U A45U U66C U80C],0.09
9,UAACAGGGGGCCACAGCAGUAGCGUUCGCGUCGCAGCCCCUGUCAGAUUAUGGUGAAUCUGCGAAUUCUGCUGUAUAUCUC [A20U A28G C50A],0.64
10,UAACAGGGGGCCACAGCAGUAGCGUUCACGUCACAGCCCCUGUCAGAUUCUGGUGGAUCAGCGAAUUCUGCUGUAUAUCUC [A20U G33A A56G U60A],0.13
11,UAACAGGGGGCCACAGCAGUAGCGUUCACAUCGCAGCCCCUGUCAGAUUCUGGUGAAUCUGCGAAUUCUGCUGUAUUUCUC [A20U G30A A77U],0.07
12,UAACAGGGGGCCACAGCAGUAGCGAUCACGUCGCAGCCCCUGUCAGAUUCUGGUGAAUCUGCGAAUUCUGCUGUUUAUCUC [A20U U25A A75U],0.26
13,UAACAGGGGGCCACAGCAGUGGCGUUCGCGUCGCAGCCCCUGUCAGAUUCUGGUGAAUCUGCGAAUUCUGCUGUAUGUCUC [A20U A21G A28G A77G],0.18
14,UAACAGGGGGCCACAGCAGUAGCGUUCACGUCGCAGCCCCUGUCAGAUUCUAGUGAAUCUGCGAAUUCUGCUGUAUAUCUU [A20U G52A C81U],0.5
15,UAACAGGGGGCCACAGCAGUAGCUCUCACGUCGCAGCCCCAGUCAGAUUCUGGUGAAUCUGCGAACUCUGCUGUAUAUCAC [A20U G24U U25C U41A U66C U80A],0.07
16,UAACAGGGGGCCACAGCAGUAGCGUUCACGUCGCUGCCCCAGUCAGAUUCUGGUGAAUCUGCGAAUUCUGCCGUAUAUCUC [A20U A35U U41A U72C],0.42
17,UAACAGGGGGCCACAGCAGUAGCGUUCACGUCGCAACCCCUGUCAGAUUCUGGUGAAUCUGCGAAUCCUGCUGUAUAUCUC [A20U G36A U67C],0.12

row,Variant,self-cleavage
1,UAACAGGGGGCCACAGCAGUAGCGUUCAUGUCGCAGCGCCUGUCUGAUUCUGGUGAAUCUGCGAAUUCUGCUGUAUAUCUC [A20U C29U C38G A45U],0.17
2,UAACAGGGGGCCACAGCAGUAGCGUUCACGUCGCUGCCCCUGUCAGAUUCUGGUGGAUCUGCGAAUUCUGCUGAAUAUCUC [A20U A35U A56G U74A],0.05
3,UAACAGGGGGCCACAGCAGUAGCGUUCACGUCGCAGCCCCUGUCAGAUUCUGGUGUAUCUGCGAGUUCUGCUGAAUGUCUC [A20U A56U A65G U74A A77G],0.07
4,UAACAGGGGGCCACAGCAGUAGCGCACACGUCGCAGCCCCUGUCAGAUUUUGGUGAUUCUGCGAAUUCUGCUGUAUAUCUC [A20U U25C U26A C50U A57U],0.06
5,UAACAGGGGGCCACAGCAGUAGCGUUCAAGUCGCAGCCCCUGUCAGAUUCUCGAGGAUCUGCGAAUUCUGCUCUAUAUCUC [A20U C29A G52C U54A A56G G73C],0.26
6,UAACAGGGGGCCACAGCAGUAGCGAUCACGUCGCAGCCCCUGUCAGAUUCUCGUGAAGCUGCGAAUUCUGCUGUAUAUCUC [A20U U25A G52C U58G],0.09
7,UAACAGGGGGCCACAGCAGUAGCGUUCACGUCGCAGCCCCUGUCAGUUUCCGGUGAAUCUGCGAAUUCAGCUAUAUAUCUC [A20U A47U U51C U69A G73A],0.32
8,UAACAGGGGGCCACAGCAGUAGCGUUCACGUCGCAACCCCUGACAGAUUCUGGUGAAUCUGCGGAUUCUGCUGUACAUCUC [A20U G36A U43A A64G U76C],0.12
9,UAACAGGGGGCCACAGCAGUAGCGUUCACGUCGCGGCCCCUGUCAGGUUCUAGUGAAUCUGCGAAUUCUGCUGUAUAUCUU [A20U A35G A47G G52A C81U],0.94
10,UAACAGGGGGCCACAGCAGUAGCGUUCACCUCGCAGCCCCCGUCAGAUUCAGGUGAAUCUGCGAAUUCUGCUGUAUAUCUC [A20U G30C U41C U51A],0.11
11,UAACAGGGGGCCACAGCAGUAGCGUUCCCGUCGCAGCCCCUGUCGGAUUCUGGUGAGUCUGCGGAUUCUGCUGUAUAUCUC [A20U A28C A45G A57G A64G],0.05
12,UAACAGGGGGCCACAGCAGUAGCGUUCACGUCGCAGCCCCUGUCAGAUUCUGGUGGAUCUGCGAAUUUCGCUGUAUAUCUC [A20U A56G C68U U69C],0.13
13,UAACAGGGGGCCACAGCAGUAGCGUUCACGUCGCGGCCCCUGUCUGAUCCUGGUGAAUCUGCGAAUUCCGCCGUAUACCUC [A20U A35G A45U U49C U69C U72C U78C],0.15
14,UAACAGGGGGCCACAGCAGUAGCGUUCUCGUCGCAGCCCCUGUCGGAUUCUGGUGAAUCUGCGAAUUCUGCUGUAUAUCUC [A20U A28U A45G],0.05
15,UAACAGGGGGCCACAGCAGUAGCGUUCACGUCGCAGCCCCUGUCGGAUUCUGGAGAAUCUGCGAAUUCUGCUGUAUAUCUC [A20U A45G U54A],0.3
16,UAACAGGGGGCCACAGCAGUAGCGUUCACGUCGCAGCCCCUGUCAGAUUCUGGUGUAUCUGCGAAUUCUGCUGAAUAUCUC [A20U A56U U74A],0.24
17,UAACAGGGGGCCACAGCAGUAGCGUUCACGUCGCUGCCCCUGUCAGUUACUGGUGAAUCUGCGAGUUCUGCUGUAUAUCAC [A20U A35U A47U U49A A65G U80A],0.06
